# Laboratory results as given in article PMC4336329 (PLoS ONE, 2015).
# The whole screen tested about 310,000 compounds, of which about 2,200 (0.71%) showed an effect of 50% or more. The effect is printed as a negative number. Some of the results follow.
# Molecular target: human ether-à-go-go-related gene (hERG) potassium channel (human, UniProt Q12809)
# Assay: primary screen, population patch clamp on CHO cells stably expressing hERG
# human ether-à-go-go-related gene (hERG) potassium channel, sequence (Q12809 whole entry, looked up): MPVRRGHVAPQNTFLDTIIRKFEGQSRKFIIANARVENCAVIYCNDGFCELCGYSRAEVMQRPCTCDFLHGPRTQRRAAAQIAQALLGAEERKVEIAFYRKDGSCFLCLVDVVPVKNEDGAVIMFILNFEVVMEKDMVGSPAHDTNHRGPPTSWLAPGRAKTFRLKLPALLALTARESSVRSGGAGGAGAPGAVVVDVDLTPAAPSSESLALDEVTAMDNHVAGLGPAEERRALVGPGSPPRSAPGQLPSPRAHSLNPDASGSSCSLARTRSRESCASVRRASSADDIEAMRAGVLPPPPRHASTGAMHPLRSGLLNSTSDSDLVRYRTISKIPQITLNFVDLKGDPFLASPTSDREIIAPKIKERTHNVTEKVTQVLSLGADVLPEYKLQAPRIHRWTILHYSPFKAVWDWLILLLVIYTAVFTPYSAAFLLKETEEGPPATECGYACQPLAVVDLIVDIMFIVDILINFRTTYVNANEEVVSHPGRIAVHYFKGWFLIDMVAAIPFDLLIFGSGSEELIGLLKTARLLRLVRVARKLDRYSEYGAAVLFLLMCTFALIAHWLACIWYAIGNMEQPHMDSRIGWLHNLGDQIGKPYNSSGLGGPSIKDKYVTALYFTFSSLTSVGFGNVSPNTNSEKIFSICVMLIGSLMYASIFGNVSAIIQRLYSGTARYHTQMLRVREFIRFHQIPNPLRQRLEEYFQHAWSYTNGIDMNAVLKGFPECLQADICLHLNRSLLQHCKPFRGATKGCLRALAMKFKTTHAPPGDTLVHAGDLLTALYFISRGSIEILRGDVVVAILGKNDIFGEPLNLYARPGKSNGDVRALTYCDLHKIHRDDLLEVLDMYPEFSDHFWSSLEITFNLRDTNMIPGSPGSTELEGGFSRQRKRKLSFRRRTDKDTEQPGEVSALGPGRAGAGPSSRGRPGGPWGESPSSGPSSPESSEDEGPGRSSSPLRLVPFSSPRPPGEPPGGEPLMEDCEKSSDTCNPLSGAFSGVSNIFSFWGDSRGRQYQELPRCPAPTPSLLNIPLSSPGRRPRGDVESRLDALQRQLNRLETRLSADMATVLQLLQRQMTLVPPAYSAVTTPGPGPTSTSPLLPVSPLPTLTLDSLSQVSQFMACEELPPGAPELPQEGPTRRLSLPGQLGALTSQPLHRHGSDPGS
row,SMILES,"hERG current change (%, negative = inhibition) at 1uM [%]"
1,COc1ccc(/C=c2\sc3nc(-c4ccccc4)c(-c4ccccc4)n3c2=O)cc1OC,12.3
2,Nc1nc2ccccc2n1Cc1ccc(Cl)c(Cl)c1,5.95
3,CCOc1[nH]n(-c2ccccc2)c(=O)c1C=NCc1cccnc1,-10.5
4,FC(F)(F)c1nnc2ccc(NCc3ccccc3)nn12,7.88
5,CCSc1nc2sc3c(c2c(=O)n1-c1ccccc1C)CCN(C)C3,13.8
6,Cn1c(C(=O)O)cc2c(=O)n3ccccc3nc21,17.2
7,Cn1nc(C(=O)NCc2ccccc2Cl)c2c1-c1ccccc1S(=O)(=O)C2,17.3
8,CN1CCN(Cc2nc(N)nc(Nc3ccc4c(c3)OCCO4)n2)CC1,3.07
9,Cc1ccc(O)c(/C=N/NC(=O)CN2CCCC2)c1,15.3
10,CCOC(=O)CSc1nc2cc(C(=O)N3CCC(C(N)=O)CC3)ccc2c(=O)n1-c1ccccc1,-6.2
11,CSCCC(=O)N1CCC(n2nccc2NC(=O)c2ccc3c(c2)OCO3)CC1,17.7
12,CC(Oc1ccccc1)C(=O)Nc1nc2c(s1)C(=O)CC(C)(C)C2 (stereo not drawn),16.4
13,COc1ccccc1NC(=S)N1CCN(c2cccc(C)c2C)CC1,9.2
14,Cc1ccc(NS(=O)(=O)c2ccc(C(=O)N3CCN(S(=O)(=O)c4ccccc4)CC3)cc2)cc1,3.25
15,CN(C)C(=O)c1c(NC(=O)c2ccccc2)sc2c1CCC2,12.9
16,CCc1ccccc1NC(=O)CSc1nnc([C@@H]2CCCN2C(=O)OC(C)(C)C)o1,-5.77
17,COc1ccccc1-c1coc2c(CN3CCN(CCO)CC3)c(O)ccc2c1=O,11
18,CCC(Sc1nc(N)cc(=O)[nH]1)C(=O)NC(C(=O)OC)c1ccccc1 (stereo not drawn),1.66
19,CCCOc1ccc(C(=O)Nn2c(C)nc3ccccc3c2=O)cc1,12.5

row,SMILES,"hERG current change (%, negative = inhibition) at 1uM [%]"
1,O=C(CSc1ccc2nnc(-c3ccccn3)n2n1)N1CCN(c2ccccc2)CC1,-89.9
2,Cc1ccsc1C(=O)N1CCCC(CCC(=O)NCc2ccccc2F)C1 (stereo not drawn),0.269
3,CC(/C=N/NC(=O)c1nnn(-c2nonc2N)c1CN1CCCCC1)=C\c1ccccc1,12.5
4,O=S(=O)(NCc1ccccc1)c1ccc(S(=O)(=O)N2CCCC2)cc1,5.51
5,Cc1nc(SCC(=O)NC2CCCCC2)[nH]c(=O)c1C,9.01
6,C#CC1CCCCC1NC(=O)Nc1cnccc1C(F)(F)F (stereo not drawn),14.4
7,CCOC(=O)c1cc(C)n(CCCN2CCOCC2)c1C,11.3
8,COc1ccc(C2C(C(=O)c3sc(C)nc3C)=C(O)C(=O)N2CCN(C)C)cc1 (stereo not drawn),7.77
9,CCC12C(=O)C(CC)(C(c3ccccc3)=C1c1ccccc1)[C@@H]1C(=O)N(c3ccc(C)cc3)C(=O)C12 (stereo partly drawn),17.2
10,OCCOCCNc1ncnc2nc[nH]c12,12.7
11,COC(=O)C(NC(=O)c1ccc(C)cc1)(Nc1cccc(C)n1)C(F)(F)F (stereo not drawn),-8.35
12,COC(=O)c1ccccc1S(=O)(=O)C(C)(C)C,8.06
13,Cc1ccc(C2(CCNS(=O)(=O)c3ccc(C)cc3)CCOC(C(C)C)C2)cc1 (stereo not drawn),9.3
14,O=C(O)C(=O)O.O=[N+]([O-])c1ccccc1S(=O)(=O)N1CCN(Cc2ccsc2)CC1,-0.882
15,C=CCSc1nn2c(=O)c3ccccc3nc2s1,-5.13
16,C=CCN(C(=O)c1csnn1)C(C(=O)NC1CCCCC1)c1ccccc1F (stereo not drawn),12.2
17,COc1cc(OC)c2c(c1O)OC(c1ccccc1)CC2=O (stereo not drawn),19.4
18,COc1ccc(N2C(=O)CSC2c2ccc(F)c(F)c2)cc1 (stereo not drawn),18.4
19,Cc1ccccc1NC(=O)C1(NC(=O)c2cccc(N3C(=O)CSC3c3ccccc3)c2)CCCCC1 (stereo not drawn),13

row,SMILES,"hERG current change (%, negative = inhibition) at 1uM [%]"
1,C[C@H]1CCC[C@]2(CC(=O)c3cc(F)ccc3O2)C1,-0.218
2,CCCCCCn1c(CN2CCCC(C)C2)nc2c1c(=O)n(C)c(=O)n2C (stereo not drawn),-26.4
3,CCN=C(NCC)SC1CC(=O)N(CCc2ccccc2)C1=O (stereo not drawn),18.4
4,CCOC(=O)C1=C(COC(=O)/C=C/c2ccco2)NC(=O)NC1C (stereo not drawn),19.5
5,COc1ccc(C(=O)Oc2cccnc2)cc1OC,2.08
6,Cc1cc(OCC(=O)N2CCN(c3ccccn3)CC2)cc(C)c1Br,5.12
7,Cc1ccnn1CC(=O)N/N=C/c1ccc([N+](=O)[O-])s1,2.8
8,COc1ccc(C2NCc3ccc4c(c3-n3cccc32)OCO4)cc1OC.Cl (stereo not drawn),2.37
9,COc1ccc(OC)c(S(=O)(=O)n2ccnc2C)c1,9.58
10,CCc1c(-c2n[nH]c(=S)n2Cc2ccccc2)csc1C,9.85
11,Cc1cc(/C=C2\C(=O)NC(=O)N(c3ccc(Br)cc3)C2=O)c(C)n1C,2.27
12,Cc1nc(-c2ccccc2)sc1C(=O)NN,17.2
13,O=C(Nc1ccc([N+](=O)[O-])cc1)N1CCN(C(=O)C2CCCO2)CC1 (stereo not drawn),10.8
14,CCC1(CC)NC(=O)N(CC(=O)N2CCN(c3ccccc3F)CC2)C1=O,13.4
15,COc1cc2c(cc1OC)C(C)N(C(=O)c1ccc(Br)o1)CC2 (stereo not drawn),14.1
16,CCOC(=O)C1=C(C)OC(N)=C(C#N)C1c1cc2cc(C)ccc2nc1N1CCCCC1 (stereo not drawn),10.8
17,COc1cc(SC)ccc1C(=O)N1CC(C)OC(C)C1 (stereo not drawn),27.1
18,CC(C)=CCc1c(O)ccc(C2COc3c(CC=C(C)C)c(O)cc(O)c3C2=O)c1O (stereo not drawn),15.1
19,O=C(CSc1nnnn1-c1cccc2ccccc12)Nc1ccc(N2CCOCC2)c(Cl)c1,3.54
